Laboratory results taken from the supplement of paper PMC11876631.
Substitutions are numbered along the chain they refer to. Numbers in names are those of the source. ± gives the standard deviation of the averaged measurements. Laboratory Escherichia coli strains with one amino-acid change in an essential protein, pooled on minimal glucose agar with carbenicillin or gentamicin at twice the control MIC (plus kanamycin and chloramphenicol for the plasmids), 48 h. Fold change of barcode share against drug-free plates; higher = less susceptible. Active = above 20 in both replicates (the paper's putatively resistant). '<' = one read or none on drug, '>' = one read or none on a drug-free plate. Shares are relative, so most strains fall below 1 when a few take over. Listed are strains with at least 15 reads on both drug-free plates, and hits; most hits rest on fewer reference reads. Replicate rank correlation about 0.5. Edits are read from barcodes.

B1: panC I263A (protein)
chain: MLIIETLPLLRQQIRRLRMEGKRVALVPTMGNLHDGHMKLVDEAKARADVVVVSIFVNPMQFDRPEDLARYPRTLQEDCEKLNKRKVDLVFAPSVKEIYPNGTETHTYVDVPGLSTMLEGASRPGHFRGVSTIVSKLFNLVQPDIACFGEKDFQQLALIRKMVADMGFDIEIVGVPIMRAKDGLALSSRNGYLTAEQRKIAPGLYKVLSSIADKLQAGERDLDEIITIAGQELNEKGFRADDIQIRDADTLLEVSETSKRAVALVAAWLGDARLIDNKMVELA
B2: panC V141W (protein)
chain: B1 chain with V141W, A263I
B3: panC V141D (protein)
chain: B1 chain with V141D, A263I
B4: panM M112A (protein)
chain: MKLTIIRLEKFSDQDRIDLQKIWPEYSPSSLQVDDNHRIYAARFNERLLAAVRVTLSGTEGALDSLRVREVTRRRGVGQYLLEEVLRNNPGVSCWWMADAGVEDRGVMTAFAQALGFTAQQGGWEKC
B5: panM M112W (protein)
chain: B4 chain with A112W
B6: panM M112Q (protein)
chain: B4 chain with A112Q
B7: panM M112D (protein)
chain: B4 chain with A112D
B8: panM M112P (protein)
chain: B4 chain with A112P
B9: panM V77W (protein)
chain: B4 chain with V77W, A112M
B10: panM V77Q (protein)
chain: B4 chain with V77Q, A112M
B11: panM V77D (protein)
chain: B4 chain with V77D, A112M
B12: panM V77P (protein)
chain: B4 chain with V77P, A112M
B13: pdxB L106A (protein)
chain: MKILVDENMPYARDLFSRLGEVTAVPGRPIPVAQLADADALMVRSVTKVNESLLAGKPIKFVGTATAGTDHVDEAWLKQAGIGFSAAPGCNAIAVVEYVFSSLLMAAERDGFSLYDRTVGIVGVGNVGRRLQARLEALGIKTLLCDPPRADRGDEGDFRSLDELVQRADILTFHTPLFKDGPYKTLHLADEKLIRSLKPGAILINACRGAVVDNTALLTCLNEGQKLSVVLDVWEGEPELNVELLKKVDIGTSHIAGYTLEGKARGTTQVFEAYSKFIGHEQHVALDTLLPAPEFGRITLHGPLDQPTLKRLVHLVYDVRRDDAPLRKVAGIPGEFDKLRKNYLERREWSSLYVICDDASAASLLCKLGFNAVHHPAR
B14: pdxB L106W (protein)
chain: B13 chain with A106W
B15: pdxB L106Q (protein)
chain: B13 chain with A106Q
B16: pdxB L106D (protein)
chain: B13 chain with A106D
B17: pdxB V96A (protein)
chain: B13 chain with V96A, A106L
B18: pdxB V96W (protein)
chain: B13 chain with V96W, A106L

Target: Escherichia coli (laboratory strain)
Assay: barcode share on antibiotic plates over drug-free plates; higher = less susceptible
Description: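 A pool of E. coli strains, each edited to carry one amino-acid change in an essential protein, was grown for 48 h on minimal glucose agar with or without antibiotic; strain barcodes were sequenced; mean of two replicates.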

[1] = antibiotic: carbenicillin, 2× MIC (3.1 µg/mL)
[2] = antibiotic: gentamicin, 2× MIC (MIC 0.45 µg/mL)

Protein	fold change of barcode share [1]	fold change of barcode share [2]
B1	0.309 ± 0.042	0.00614 ± 0.0024
B2	0.276 ± 0.061	0.0134 ± 0.0043
B3	0.253 ± 0.02	
B4	2.33 ± 0.45	0.0264 ± 0.012
B5	2.17 ± 0.52	0.0356 ± 0.0053
B6	1.79 ± 0.19	0.0207 ± 0.004
B7	5.92 ± 2.8	0.0978 ± 0.068
B8	6.49 ± 2.9	0.0722 ± 0.083
B9	9.51 ± 0.3	0.0958 ± 0.098
B10	9.17 ± 3.2	0.159 ± 0.1
B11	7.63 ± 3.9	0.136 ± 0.0054
B12	8.59 ± 1.7	0.145 ± 0.057
B13	0.642 ± 0.035	< 0.014
B14	0.462 ± 0.23	0.0189 ± 0.011
B15	0.463 ± 0.22	< 0.0112
B16	1.64 ± 0.31	
B17	0.396 ± 0.063	0.00673 ± 0.006
B18	0.336 ± 0.09	< 0.00274
